Assay results reported in PubChem BioAssay AID1159614 (National Center for Advancing Translational Sciences (NCATS), 2016).
About 65 (0.1%) of roughly 45,000 compounds were called active. The call rests on the fitted dose curve; in most records, active means well fitted activation curve with a large enough effect; inconclusive means small, poorly fitted or top-dose-only effect; inactive means no such curve, though single readings can be large or run the other way. The list shows a part of the results.

Each compound was assayed against Galactocerebrosidase (Homo sapiens) (UniProt P54803) (assay: A Novel Cell-Based Assay to Identify Small Molecules for B -Galactocerebrosidase). Conditions: 145M-Twi-hGALC-G270D cells, HMU-beta-Gal fluorescence, 48 h; series mostly up to 57.5 µM; activation: at the top concentration.
In short: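 qHTS, 1536-well; 145M-Twi-hGALC-G270D cells (WT line also made) in DMEM/F12 + 10% FBS; compound incubation on live cells; HMU-β-gal 0.1 mM final, pH 5.2, NaTC; carbonate stop; fluorescence increase = enhanced residual activity.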
Further: 0% is about no effect; nearly all actives have a fitted effect of over 65% in size.

Chain of UniProt P54803 (P54803 whole entry, looked up): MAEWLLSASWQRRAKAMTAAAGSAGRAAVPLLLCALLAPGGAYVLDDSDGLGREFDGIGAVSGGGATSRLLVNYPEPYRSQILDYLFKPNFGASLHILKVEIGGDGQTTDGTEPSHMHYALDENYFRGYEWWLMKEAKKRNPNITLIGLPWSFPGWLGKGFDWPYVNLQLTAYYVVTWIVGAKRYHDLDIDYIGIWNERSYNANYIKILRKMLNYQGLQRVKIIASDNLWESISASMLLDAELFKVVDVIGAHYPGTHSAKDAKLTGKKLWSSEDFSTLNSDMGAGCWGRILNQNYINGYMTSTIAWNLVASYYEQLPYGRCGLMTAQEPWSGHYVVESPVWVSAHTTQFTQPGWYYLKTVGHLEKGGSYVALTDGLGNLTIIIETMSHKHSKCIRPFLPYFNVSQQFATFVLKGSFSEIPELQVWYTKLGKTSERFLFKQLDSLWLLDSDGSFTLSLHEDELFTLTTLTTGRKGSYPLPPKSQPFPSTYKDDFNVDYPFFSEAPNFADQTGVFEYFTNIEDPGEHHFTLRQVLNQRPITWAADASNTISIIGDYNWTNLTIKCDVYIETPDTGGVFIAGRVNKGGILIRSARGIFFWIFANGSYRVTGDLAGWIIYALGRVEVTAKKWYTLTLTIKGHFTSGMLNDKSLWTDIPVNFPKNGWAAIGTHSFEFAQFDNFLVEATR

activation, inactive:
Clc1ccccc1CSc1nncn2c1cc1occc12 -6.99%
COc1ccc(-c2cc(C)no2)cc1S(=O)(=O)N1CCN(c2ccc(C(C)=O)cc2)CC1 -15.6%
CC(=O)N1c2ccccc2CC1C(=O)N1CCN(c2cccc(C)c2C)CC1 (stereo not given) -14.4%
Cc1ccc2onc(CC(=O)N3CCN(c4ccccc4F)CC3)c2c1 -6.28%
CCc1cc(Cl)c(OC)c(C(=O)NC[C@@H]2CCCN2CC)c1O -10.2%
COc1ccc(NC(=O)C2=C(C)Nc3c(C(=O)Nc4ccc(C)cc4)cnn3C2c2cccc(Cl)c2)cc1 (stereo not given) -10.7%
CCCCN(CC)C(=O)c1c[nH]c2ccc(S(=O)(=O)Nc3cccc(OC)c3)cc2c1=O -12.1%
COc1ccc(NC(=O)CC2Nc3cccc4cccc(c34)NC2=O)cc1 (stereo not given) -8.88%
CCOC(=O)c1cnc2ccc(Cl)cc2c1Nc1ccc(OCC)cc1 -23.1%
COc1ccc(Nc2cc(C(=O)NCCCN(C)Cc3ccccc3)c3ccccc3n2)cc1 2.98%
CCOC(=O)c1ccc(NC(=O)CC2C(=O)N(c3ccc(F)cc3)C(=O)N2Cc2ccc(C)cc2)cc1 (stereo not given) -14.6%
COc1ccc(C(=O)Nc2ccccc2-c2nc3ccccc3s2)c(OC)c1 -8.71%
CCOc1cc(C2Sc3ccccc3NC3=C2C(=O)c2ccccc23)ccc1O (stereo not given) -0.797%
CC(C)OCCCNC(=O)CSc1c2c(nc3ccc(Cl)cc13)CCCC2 -2.97%
COc1cccc(-c2nc3c(c(SCC(=O)Nc4cc(C)ccc4C)n2)Cc2c(CO)cnc(C)c2O3)c1 -6.52%
Cc1cccn2c(=O)cc(COc3cccc(NC(=O)COc4ccccc4)c3)nc12 8.47%
Cc1nc(-n2nc(C)c(CCC(C)C)c2C)sc1C(=O)Nc1ccc(Br)cc1 -7.92%
CC(=O)c1ccc(NC(=O)CCc2nc(-c3ccc(C)cc3)no2)cc1 -41.6%
CC(=O)c1ccc(NC(=O)CSc2nc(C3CCCC3)nc3c2c(=O)n(C)c(=O)n3C)cc1 -9.29%
COc1ccc(CNC(=O)C2=C(C)C(=O)OC23CCN(C(C)=O)CC3)cc1 -2.86%
CC1CCN(c2oc(-c3ccc(COc4ccc(Cl)cc4)o3)nc2C#N)CC1 -14.8%
CCCCOc1ccccc1C(=O)Nc1onc2c1CCCC2 -14.9%
CCOC(=O)N1CCc2c(sc3c2c(=O)n(Cc2ccccc2)c(=O)n3Cc2ccc(C)cc2)C1 1.75%
COc1ccc(CCNC(=O)CCCn2c(SCC(N)=O)nc3cc4c(cc3c2=O)OCO4)cc1OC -34.8%
CC(C)OC(=O)/C(C#N)=C/c1ccc(-c2ccc(Cl)c(Cl)c2)o1 -22.8%
CCOc1ccccc1CNC(=O)c1ccc(Cn2c(SCc3ccccc3)nc3cccnc32)cc1 -20.2%
Cc1cc(C)c2nc(NC(=O)c3ccc(S(=O)(=O)N4CCC(C)CC4)cc3)sc2c1 -8.12%
Fc1ccc(N2CCN(Cc3cccn3-c3nnc(N4CCN(C5CCCCC5)CC4)s3)CC2)cc1 -21%
CCOC(=O)c1cc(-c2ccccc2)n(-c2cccc(C(=O)N(C)c3ccc(C)cc3)c2)c1C -13.9%
CCc1ccccc1NC(=O)c1cc2c(Cl)nc3ccccc3c2s1 -13.7%
Cc1ccc(NC(=O)C2CCCN(c3cnccn3)C2)c(C)c1 (stereo not given) -10.8%
CCCSc1nc2sc3c(c2c(=O)n1-c1cccc(Br)c1)CC(C)(C)OC3 -5.57%
Cc1ccccc1Cn1c(SCc2ccc(C(=O)NC3CCCC3)cc2)nc2ccncc21 -12.4%
CC(=O)Nc1ccc(Nc2ncnc3c2c(-c2ccccc2)cn3-c2ccc(C)c(Cl)c2)cc1 -8.83%
CCOC(=O)c1c(C)[nH]c(C)c1S(=O)(=O)N1CCC(C(=O)Nc2ccc(C)c(Cl)c2)CC1 -9.4%
Cc1cccc(C)c1NC(=O)CCS(=O)(=O)c1cccc2nonc12 -11.4%
Cc1c(NC(=O)c2ccc(Br)o2)cccc1-c1nc2ccccc2o1 -16.4%
CCCOc1cccc(C(=O)Nc2ccc(-c3cc4ccccc4oc3=O)c(C)c2)c1 -11.6%
CCOC(=O)c1ccc(NC2=CC(c3ccc(F)cc3)N(c3ccc(C(=O)OCC)cc3)C2=O)cc1 (stereo not given) -12%
CCOc1ccccc1NC(=O)c1cc2c(=O)n(Cc3cccnc3)ccc2nc1C -21.3%
COc1ccc(NC(=O)N2CCN3CCCCC3C2)cc1OC (stereo not given) -9.88%
COc1cc(C2NC(=O)c3c(sc4c3CCN(C)C4)N2)ccc1OC(=O)c1ccccc1 (stereo not given) -13.8%
COc1ccccc1N=c1scc(-c2ccc(S(=O)(=O)N3CCCC3)cc2)n1C -11.3%
COc1cccc(NC(=O)N2CCN(C(=O)c3nsc4ccccc34)CC2)c1 -3.21%
Cc1nc2c(c(C)nn2-c2ccccc2)c(C)c1CCC(=O)NCCc1ccc(Cl)cc1 -8.04%
COc1ccccc1CNC(=O)CCNS(=O)(=O)c1cccc2nsnc12 3.79%
Cc1cccc(Cn2cccc2CNS(=O)(=O)c2ccc(C)c(C)c2)c1 -10.7%
CN1CCSc2ccc(C(=O)NCc3ccccc3)cc21 -10.7%
CCCCN(Cc1ccco1)C(=O)Cn1ncc2c([nH]c3ccccc32)c1=O -11%
O=C(c1ccco1)n1nc(-c2ccc(Cl)cc2)nc1NCc1ccc(F)cc1 2.3%
COc1ccc(CC(=O)NCc2ccc3c(c2)CCN3C(=O)c2cccc(C)c2)cc1 -20.6%
Cc1ccc(-n2cnc3cc(C(=O)NCc4ccccc4Cl)ccc32)c(C)c1 -42.2%
O=C(O)C(Cc1cc(I)c(O)c(I)c1)c1ccccc1 (stereo not given) 1.89%
CCCOc1cccc(C2c3c(oc4ccc(F)cc4c3=O)C(=O)N2Cc2ccc3c(c2)OCO3)c1 (stereo not given) -1.85%
Cc1nc(-n2nc(C)c(Cc3ccc4c(c3)OCO4)c2C)sc1C(=O)Nc1ccc(Cl)cc1 -5.87%
O=C(Nc1ccc2nc(SCCOc3ccccc3)sc2c1)c1ccc2c(c1)OCO2 -18.9%
Clc1ccccc1Nc1ncnc2c1nc1n2CCCCC1 -5.74%
CCOCCCNc1nc2cc(OC)c(OC)cc2c2nc(-c3ccccc3)nn12 -20.1%
COc1ccc(C2C(C(=O)Nc3ccccc3)=C(C)Nc3nc(-c4ccccc4Cl)nn32)cc1OC (stereo not given) -14.2%
Cc1ccc(NC(=O)Cn2c(=O)n(CCC(=O)NCc3ccccc3Cl)c(=O)c3ccccc32)c(C)c1 4.06%
Cc1cccc(NS(=O)(=O)c2ccc3nc(-c4ccccc4)[nH]c3c2)c1C -0.896%
CCOC(=O)c1scc(-c2ccc(C)cc2)c1S(=O)(=O)Nc1ccc(OC)c(Cl)c1 -16.1%
Cc1nc2cc(-c3ccccc3)nn2c(C)c1CCC(=O)NCc1cccc(Cl)c1 -8.73%
Cc1ccc(CNC(=O)CN(c2cc(C)cc(C)c2)S(=O)(=O)c2c(C)noc2C)cc1 -11.4%
COc1cc2[nH]c(=O)n(CCCCCC(=O)N3CCN(c4ccc(Cl)cc4)CC3)c(=O)c2cc1OC -11.3%
O=C(CSc1cn(CC(=O)N2CCCC2)c2ccccc12)Nc1ccccc1C(F)(F)F 5.62%
Cc1cccc(Cn2c(=O)n(CC3CCC(C(=O)N4CCC(C)CC4)CC3)c(=O)c3sccc32)c1 (stereo not given) -10.2%
Cc1nc2ccn(Cc3cccs3)c(=O)c2cc1C(=O)N1CCN(c2ccccc2)CC1 -14.8%
CCOC(=O)Cc1ccc(NC(=O)N2CC(C)Oc3ccc(Cl)cc32)cc1 (stereo not given) -7.8%
COc1cc2nc(NCc3ccccc3)n3nc(-c4ccccc4)nc3c2cc1OC -16.9%
COC(=O)c1ccccc1NC(=O)c1ccc2c(Cl)c3c(nc2c1)CCCC3 -14.9%
O=C(Nc1cccc(Br)c1)c1cc(-c2ccc3c(c2)OCCO3)on1 4.87%
COc1ccc(-n2c(=O)c3ccc(C(=O)NCc4ccc(C)cc4)cc3n(Cc3ccc(C)cc3)c2=O)cc1 -15.8%
Cc1ccccc1CNCCSc1nnnn1-c1ccccc1 -8.11%
Cc1ccc(-n2c(=O)c3ccc(C(=O)NCc4ccco4)cc3n(Cc3ccc(Cl)cc3)c2=O)cc1 -17.2%
CCOC(=O)N1CCN(Cc2nc3cc(NC(=O)c4ccccc4OC)ccc3n2C(C)C)CC1 -13.6%
Cc1ccc2c(c1)N(S(=O)(=O)c1ccc3c(c1)NC(=O)CC(=O)N3)CCO2 -17.3%
Cc1ccc2c(c1)N(CC(=O)NCCCN1CCCCC1C)C(=O)c1cccnc1O2 (stereo not given) -9.75%
Cc1ccc(-n2nc3c(=O)n(CC(=O)NCc4ccco4)nc(C)c3c2C)cc1 -22.8%
COc1ccc(CNC(=O)c2nc(S(=O)(=O)Cc3ccccc3)ncc2Cl)cc1 -23.4%
CSc1ccc(CCNc2ncnc3onc(-c4ccc(Cl)cc4)c23)cc1 -26.1%
Cc1cc(C)c2sc(N3CCN(C(=O)C4CC4)CC3)nc2c1 -2.33%
Cc1nc2nc(SCC(=O)N(Cc3ccccc3)C(C)C)nn2c(C)c1Cc1ccccc1Cl -12.7%
COc1ccc(C(=O)c2sc(Nc3cc(Cl)ccc3C)nc2N)cc1OC -5.9%
COC(=O)c1cc2occc2n1Cc1nc(-c2cccc(Br)c2)oc1C -14.7%
CCc1ccc2ncc3c(-c4ccc(C)cc4)nn(CC(=O)Nc4ccc(C)cc4)c3c2c1 -19.3%
COc1ccc(Oc2nc3c(C)cccn3c(=O)c2/C=C(\C#N)c2nc3ccccc3[nH]2)cc1 -11.5%
Cc1cc(C)c(NC(=O)Cn2c(=O)n(-c3ccc(F)cc3)c(=O)c3c(C)c(C(=O)N(C)C)sc32)c(C)c1 -0.607%
COc1ccc(-n2c(=O)c3c4c(sc3n(Cc3cc(=O)n5c(C)cccc5n3)c2=O)CCC4)c(OC)c1 -21.8%
Cc1ccc(NC(=O)c2ccco2)c(OCc2cc(=O)n3cc(C)sc3n2)c1 -2.67%
CC(C)(Cc1c[nH]c2ccccc12)NCC(O)COc1ccccc1C#N (stereo not given) -8.41%
CCC1CN(C(=O)NCc2ccc(F)cc2)c2ccccc2O1 (stereo not given) -7.17%
COc1ccc(NC(=O)CCCS(=O)(=O)c2nc(-c3ccc(OC)c(OC)c3)cc(C(F)(F)F)n2)cc1OC -19%
Cc1ccc(OCC(=O)Nc2ccc3nc(SCC(=O)N4CCCC4)sc3c2)cc1C -15.7%
CCc1ccc(CNC(=O)CSCc2cnn(-c3ccccc3)c2-n2cccc2)cc1 -10.4%
